In PubChem BioAssay AID588342 (National Center for Advancing Translational Sciences (NCATS), 2011):
Several values for one entry are separate records, joined by “and”; a condition that tells them apart may be missing. Equal entries are not always repeated. Out of some 360,000 compounds screened, about 25,000 (6.9%) were called active. The inconclusive results got no clear call from the source; some entries with a clear call stand among them for comparison. The call rests on the fitted dose curve; in most records, active means well fitted inhibition curve with a large enough effect; inconclusive means small, poorly fitted or top-dose-only effect; inactive means flat fitted curve, though single readings scatter. Potencies beside an inconclusive call are fits to weak or partial responses and may not hold up.

What follows are molecules tested against Luciferin 4-monooxygenase (Photinus pyralis) (UniProt P08659) (assay: qHTS profiling assay for firefly luciferase inhibitor/activator using purifed enzyme and Km concentrations of substrates (counterscreen for miR-21 project)). Conditions: purified FLuc, luminescence inhibition; activity change, negative = inhibition: at 57.5 µM (top of the series).
Chain of UniProt P08659 (P08659 whole entry, looked up): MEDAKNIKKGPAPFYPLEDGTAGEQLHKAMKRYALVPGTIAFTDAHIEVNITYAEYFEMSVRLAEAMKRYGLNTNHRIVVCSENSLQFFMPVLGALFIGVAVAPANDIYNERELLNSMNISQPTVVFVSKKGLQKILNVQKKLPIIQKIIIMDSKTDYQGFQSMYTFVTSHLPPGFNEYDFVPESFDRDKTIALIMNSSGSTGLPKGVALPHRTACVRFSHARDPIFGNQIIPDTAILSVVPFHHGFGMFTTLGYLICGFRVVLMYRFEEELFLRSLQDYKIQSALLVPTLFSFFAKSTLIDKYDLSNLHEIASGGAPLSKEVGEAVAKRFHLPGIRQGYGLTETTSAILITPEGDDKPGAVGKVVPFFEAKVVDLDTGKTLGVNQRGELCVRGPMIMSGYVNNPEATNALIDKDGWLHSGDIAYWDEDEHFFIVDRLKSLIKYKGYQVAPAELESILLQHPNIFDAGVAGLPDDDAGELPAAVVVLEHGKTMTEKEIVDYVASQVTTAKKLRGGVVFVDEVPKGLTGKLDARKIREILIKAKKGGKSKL
Summary of the method: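 Biochemical qHTS of compounds, final roughly 60 µM downward over six points, against 10 nM purified firefly luciferase using Km concentrations of substrates (10 uM D-luciferin, 10 uM ATP) in Tris acetate pH 7.5 buffer; luminescence output.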
Further: nearly all actives have a fitted effect of over 55% in size.
Potency means the concentration at half of the fitted maximal effect; tags describe the fitted curve by direction and shape.
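Wherever activity change, negative = inhibition is given: plate controls were vehicle for no effect and reference inhibitor for full effect.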

SMILES | Potency | activity change, negative = inhibition
Cc1c(Cl)ccc2sc(N3CCN(C(=O)CS(=O)(=O)c4ccccc4)CC3)nc12 | inconclusive: 37.9 µM [inhibitor, partial curve, poor fit] | 
O=C1CCCC/C1=C\Nc1ccccc1C(=O)O |  | inactive: -14.5%
Cc1ccc(-c2cc(NC(=O)c3ccccc3[N+](=O)[O-])n[nH]2)cc1 | inconclusive: 26.9 µM [inhibitor, partial curve, poor fit] | 
COCCn1c(C)cc(/C=N/NC(=O)c2cccnc2)c1C | inconclusive: 19 µM [inhibitor, partial curve] | 
Cc1nnc(SCc2c(Cl)cccc2Cl)s1 | inconclusive: 26.9 µM [inhibitor, partial curve, poor fit] | 
COc1ccc(Cl)cc1C(=O)Nc1ccc(OCC(=O)N2CCOCC2)cc1 | inconclusive: 30.1 µM [inhibitor, single point] | 
O=C(Nc1ccccc1)N1CCCc2ccccc21 |  | inactive: -14.5%
COc1c(/C=N/Nc2nc(N3CCCCC3)nc(N3CCCCC3)n2)cccc1[N+](=O)[O-] |  | inactive: 2.92%
CC(=O)Nc1ccc(NC(=O)C(C)OC(=O)c2ccccc2NS(=O)(=O)c2cccs2)cc1 (centres undefined) |  | inactive: 3.6%
C=CCn1c(O)c(N=NC(=O)OC(C)(C)C)c2ccccc21 | active: 16.9 µM | 
COCCCNC(=O)c1ccc2nc(CCc3ccccc3)oc2c1 | inconclusive: 23.9 µM [inhibitor, partial curve, poor fit] | 
CSc1cccc(NC(=O)CSc2ccccc2)c1 | inconclusive: 23.9 µM [inhibitor, single point] | 
Cc1ccc(NC(=S)Nc2ncccc2C)c(C)c1 | active: 6.75 µM | 
COc1cc(-c2nnn(CC#N)n2)ccc1OCc1ccccc1 | inconclusive: 26.9 µM [inhibitor, single point] | 
Nc1cccc(C#Cc2ccc3c(=O)c4ccccc4oc3c2)c1 | inconclusive: 33.8 µM [inhibitor, single point] | 
CCOC(=O)C1=C(c2ccccc2)OC(N)=C(C#N)C1c1cccnc1 (centres undefined) | inconclusive: 12 µM [inhibitor, partial curve, poor fit] | 
COc1ccccc1CNC(=O)COC(=O)c1ccccc1SCC(=O)N1CCCC1 | inconclusive: 26.9 µM [inhibitor, single point] | 
CC(C)OC(=O)c1cccc(NC(=O)CSc2nnc(N)s2)c1 | inconclusive: 16.9 µM [inhibitor, partial curve, poor fit] | 
C/C(=N\Nc1ccc(C)c(Cl)c1)c1ccncc1 | inconclusive: 26.9 µM [inhibitor, single point] | 
Cc1cc2cc(CCNC(=O)c3cccc([N+](=O)[O-])c3)c(=O)[nH]c2cc1C |  | inactive: 2.1%
COc1ccc(CNC(=O)c2cc(C3CC3)on2)cc1 | inconclusive: 33.8 µM [inhibitor, single point] | 
O=C(COc1ccc(C(=O)NCCc2ccccc2)cc1)Nc1ccccc1 |  | inactive: 2.08%
CCCOc1ncnc2c1[nH]c1ccc(C)cc12 | active: 1.2 µM | 

SMILES | Potency | activity change, negative = inhibition
COc1cccc(C(=O)Nc2cc(C(=O)NCc3ccc(C)cc3)ccc2N2CCC3(CC2)CC(c2ccccc2)=NO3)c1 | inconclusive: 33.8 µM [inhibitor, partial curve, poor fit] | 
NS(=O)(=O)c1ccc(CCNC(=O)c2cc(-c3cccs3)nc3ccccc23)cc1 |  | inactive: -17.8%
CCC(C)c1ccc(O)c(/C=N/O)c1 (centres undefined) | inconclusive: 23.9 µM [inhibitor, single point] | 
Cc1ccn2cc(-c3ccc(C)c(NS(=O)(=O)c4ccc(Cl)cc4)c3)nc2c1 | active: 10.7 µM | 
Cc1ccc2nc(SCC(=O)c3ccccc3)nc(=O)n2c1 | active: 10.7 µM | 
COc1ccc(CCN2CC(C(=O)N(C)Cc3ccc(C)o3)CCC2=O)cc1 (centres undefined) | inconclusive: 23.9 µM [inhibitor, partial curve] | 
CC1(C)CN=c2s/c(=C\c3ccc(Cl)cc3)c(=O)n2C1 | inconclusive: 7.57 µM [inhibitor, partial curve] | 
CCCCn1c(=NC(=O)c2ccco2)c(C(=O)OCC)cc2c(=O)n3cccc(C)c3nc21 |  | inactive: -0.14%
COc1ccc(C)cc1Nc1nc(N)c2cc(OC)c(OC)cc2n1 | inconclusive: 15.1 µM [inhibitor, partial curve] and inconclusive: 30.1 µM [inhibitor, single point] | 
CC(=O)c1cccc(NC(=O)c2nc(-c3ccccc3)n(-c3ccccc3C)n2)c1 | inconclusive: 4.78 µM [inhibitor, partial curve, poor fit] | 
O=C(Cc1cccc(NC(=O)C2CCN(C(=O)CCc3ccccc3)CC2)c1)Nc1cccc(C(=O)N2CCCC2)c1 |  | inactive: -4.4%
Cn1c(-c2ccc(Cl)nc2)nc2cc(Cl)ccc21 | inconclusive: 23.9 µM [inhibitor, partial curve, poor fit] | 
COc1cccc(NC(=O)Cc2cccs2)c1 | inconclusive: 26.9 µM [inhibitor, partial curve, poor fit] | 
COc1ccc(NC(=O)c2oc3ccccc3c2NC(=O)Cc2cccs2)c(OC)c1 |  | inactive: 0.341%
COc1cc(/C=N/Nc2ccnc(=O)[nH]2)ccc1O | inconclusive: 23.9 µM [inhibitor, partial curve, poor fit] | 
Cc1ccc(Sc2ccc(N3CCCC(C(=O)Nc4ccc(F)cc4F)C3)nn2)cc1 (centres undefined) |  | inactive: -0.936%
CCOC(=O)c1c(C)oc2ccc(OC(=O)c3cccs3)cc12 | inconclusive: 37.9 µM [inhibitor, partial curve, poor fit] | 
Cc1cc(Br)cc(/C=N/NC(=O)c2ccc3c(c2)OCO3)c1O | inconclusive: 2.39 µM [inhibitor, full curve] | 
C=CCn1c(=S)[nH]c2nc3c(cc2c1=O)CCCC3 |  | inactive: -15.8%
Cc1ccc(CSc2nc3cccnc3n2Cc2ccc(C(=O)NCCc3cccs3)cc2)cc1 | active: 0.426 µM | 
O=C(NC1=NCCS1)c1cc(-c2cccnc2)nc2ccccc12 | inconclusive: 26.9 µM [inhibitor, partial curve] | 
CC(C)COc1ccc(-c2cc(C(=O)NN)[nH]n2)cc1 | inconclusive: 16.9 µM [inhibitor, partial curve] | 
Cc1cc(C(=O)NC2CCCc3c2cnn3-c2ccc(C(C)(C)C)cc2)nn1C (centres undefined) | inconclusive: 23.9 µM [inhibitor, partial curve, poor fit] | 

SMILES | Potency | activity change, negative = inhibition
CCCCCC/C(=N\NS(C)(=O)=O)c1ccccc1 | inconclusive: 37.9 µM [inhibitor, partial curve, poor fit] | 
CCc1ccc(C(=O)OCC(=O)c2c(N)n(CC(C)C)c(=O)n(C)c2=O)cc1 |  | inactive: -10.2%
COc1ccc(C2CC(=O)N(CC(=O)Nc3cccc(C)c3C)c3ccccc3S2)cc1OC (centres undefined) |  | inactive: -8.18%
Cc1ccc(F)c(NC(=O)CCc2ccccc2)c1 | inconclusive: 30.1 µM [inhibitor, single point] | 
CC(=O)N1N=C(c2cccnc2)OC1c1ccc(C(C)C)cc1 (centres undefined) | inconclusive: 0.0239 µM [inhibitor, partial curve, poor fit] | 
CCOc1ccc(C(=O)NCC(=O)OCC(=O)Nc2cccc(S(=O)(=O)N3CCCC3)c2)cc1 | active: 4.26 µM | 
COc1cc(/C=C2/SC(=S)N(Cc3ccccc3)C2=O)cc(Cl)c1O | inconclusive: 37.9 µM [inhibitor, single point] | 
COc1ccc(-c2cc(C(=O)N3CCN(c4ccccc4F)CC3)c3ccccc3n2)c(OC)c1 |  | inactive: -3.06%
Cc1ccc(NC(=O)COC(=O)c2ccc3c(c2)OCCO3)cc1S(=O)(=O)N1CCOCC1 | inconclusive: 33.8 µM [inhibitor, partial curve, poor fit] | 
O=C(CSCC(=O)OCC(=O)c1ccc(Br)cc1)Nc1cccc2ccccc12 | inconclusive: 26.9 µM [inhibitor, single point] | 
Cc1ccc(NC(=O)CCCNC(=O)c2ccc(Cl)cc2)c(O)c1 | inconclusive: 30.1 µM [inhibitor, single point] | 
CCCCCCC1CCC(C(=O)NC(C(=O)O)C(C)C)CC1 (centres undefined) | inconclusive: 26.9 µM [inhibitor, partial curve] | 
O=S1(=O)N=C(N/N=C/c2ccc(Br)o2)c2ccccc21 | inconclusive: 19 µM [inhibitor, single point] | 
O=C(c1cc2cc([N+](=O)[O-])ccc2oc1=O)N1CCOCC1 | active: 2.39 µM | 
COc1ccc(C(=O)COC(=O)/C=C/c2ccco2)cc1F | inconclusive: 21.3 µM [inhibitor, partial curve, poor fit] | 
CC(=O)N1CC=CC1(CC(C)C)C(=O)NCCN1CCOCC1 (centres undefined) | inconclusive: 37.9 µM [inhibitor, single point] | 
Cc1ccc(C(=O)NN2C(=O)c3ccc(S(=O)(=O)c4ccc(C(=O)O)cc4)cc3C2=O)cc1 | inconclusive: 21.3 µM [inhibitor, partial curve] | 
COc1ccc(C(=O)Nc2ccccc2C(=O)Nc2cccnc2)cc1 | active: 4.26 µM | 
Cc1ccc(/C(N)=N/OC(=O)c2ccc(Cl)cc2Cl)cc1 | active: 1.07 µM | 
N#Cc1c(N)nc2c(c1-c1ccccc1)CCC2 | inconclusive: 37.9 µM [inhibitor, partial curve, poor fit] | 
CCCOc1ccc(CSc2n[nH]c(C)n2)cc1 | active: 19 µM | 
O=C(Nc1ccc(Br)cc1)c1cccc(S(=O)(=O)N2CCc3ccccc32)c1 |  | inactive: 3.01%
O=C(Nc1nccs1)c1c(O)c2c([nH]c1=O)CCCC2 | inconclusive: 3.01 µM [inhibitor, partial curve, poor fit] | 
